Among all 310,000 compounds or so, about 2,200 (0.71%) showed an effect of 50% or more. The effect is printed as a negative number. The list shows a part of the results.

The target of this test is human ether-à-go-go-related gene (hERG) potassium channel (human, UniProt Q12809). Kind of test: primary screen, population patch clamp on CHO cells stably expressing hERG.
Sequence of human ether-à-go-go-related gene (hERG) potassium channel (Q12809 whole entry, looked up): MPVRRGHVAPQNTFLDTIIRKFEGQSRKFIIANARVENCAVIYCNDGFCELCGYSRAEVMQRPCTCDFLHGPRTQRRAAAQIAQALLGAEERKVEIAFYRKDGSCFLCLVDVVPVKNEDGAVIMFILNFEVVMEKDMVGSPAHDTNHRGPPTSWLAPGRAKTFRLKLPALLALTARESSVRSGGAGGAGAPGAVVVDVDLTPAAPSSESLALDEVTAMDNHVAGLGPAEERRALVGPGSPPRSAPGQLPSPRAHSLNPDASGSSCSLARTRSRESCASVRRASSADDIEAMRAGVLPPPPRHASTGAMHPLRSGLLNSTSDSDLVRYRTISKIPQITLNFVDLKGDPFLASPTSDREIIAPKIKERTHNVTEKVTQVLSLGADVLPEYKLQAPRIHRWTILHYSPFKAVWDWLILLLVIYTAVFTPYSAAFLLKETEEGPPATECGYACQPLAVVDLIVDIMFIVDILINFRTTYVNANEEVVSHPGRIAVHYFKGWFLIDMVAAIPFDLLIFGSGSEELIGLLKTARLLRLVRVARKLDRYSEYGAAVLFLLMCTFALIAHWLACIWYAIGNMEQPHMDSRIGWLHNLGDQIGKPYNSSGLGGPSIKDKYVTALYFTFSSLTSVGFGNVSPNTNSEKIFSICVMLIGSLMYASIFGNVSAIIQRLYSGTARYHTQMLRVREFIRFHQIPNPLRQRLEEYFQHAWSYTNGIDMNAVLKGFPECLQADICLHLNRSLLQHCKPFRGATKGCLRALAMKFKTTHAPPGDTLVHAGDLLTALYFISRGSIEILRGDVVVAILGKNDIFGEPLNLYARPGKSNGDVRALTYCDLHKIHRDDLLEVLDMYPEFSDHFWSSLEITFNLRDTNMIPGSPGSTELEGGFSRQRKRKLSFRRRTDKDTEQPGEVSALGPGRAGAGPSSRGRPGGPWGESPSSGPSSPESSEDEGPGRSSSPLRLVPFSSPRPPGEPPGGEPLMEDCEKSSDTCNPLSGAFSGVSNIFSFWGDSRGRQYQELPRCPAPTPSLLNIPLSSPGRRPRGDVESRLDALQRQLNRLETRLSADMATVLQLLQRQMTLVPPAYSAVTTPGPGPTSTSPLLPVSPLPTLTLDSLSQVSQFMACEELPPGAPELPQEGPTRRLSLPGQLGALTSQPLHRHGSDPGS
Consider `COC(=O)C(=C/C=C/c1cccnc1)C(=O)OC`, for which the “hERG current change (%, negative = inhibition) at 1uM” value turned out to be 16.6%.
With `COC(=O)c1ccc(NC(=O)c2ccc(CN3CCOCC3)cc2)cc1` the figure was 4.41%; with `CCN1CCN(C(c2ccc(OC)cc2)C(O)C(=O)c2c[nH]c3ccccc23)CC1` (stereo not drawn), -64.4%.
With `COc1cccc(N2CCN(C3OC(=O)c4ccccc43)CC2)c1` (stereo not drawn) the figure was -8.54%.
Turning to `Cl.Clc1cccc(Cl)c1CNCCCSc1ncccn1`, the “hERG current change (%, negative = inhibition) at 1uM” value is recorded as 6.67%.
As to `CC(=O)OC1(Cc2ccccc2)CN2CCC1c1ccccc12.Cl` (stereo not drawn), the “hERG current change (%, negative = inhibition) at 1uM” value amounted to 4.89%.
The same measure for `Cc1ccc2c(c1)N(CCC(=O)NCCCN1CCCC1)C(=O)CO2`: 11.8%; for `O=c1cccc2n1C[C@@H]1C[C@@H]2CN(CC(O)c2ccc([N+](=O)[O-])cc2)C1` (stereo partly drawn): -2.18%.
As for `COc1ccc(OC)c(/C=C/c2ccc3cccc(O)c3n2)c1`, the “hERG current change (%, negative = inhibition) at 1uM” value is recorded as 17.3%.
The same measure for `O=C(Nc1cccc(Cl)c1)C1CC1c1ccccc1` (stereo not drawn): 5.08%; for `COc1ccc(S(=O)(=O)N2CCC(C(=O)NCC3CCCCC3)CC2)cc1`: 6.42%.
Turning to `O=C(O)C(O)C(O)C(=O)O.O=C(c1ccc(F)cc1)C1CCN(CCn2c(=O)[nH]c3ccccc3c2=O)CC1`, the “hERG current change (%, negative = inhibition) at 1uM” value is -9.52%.
The same measure for `COc1ccc(C(=O)CN2C(=O)C(C)(C)Oc3ccc(C(=O)N4CCCCCC4)cc32)cc1`: 4.11%; for `CCN(CC)S(=O)(=O)c1ccc(Cl)c(C(=O)OCC(=O)c2c(N)n(C)c(=O)n(C)c2=O)c1`: 1.11%.
With `COc1ccc(OC)c(C2C(C(C)=O)=C(O)C(=O)N2c2ccc(F)cc2)c1` (stereo not drawn) the figure was 12.7%.
With `O=C(O)CSc1nc2sc3c(c2c(=O)n1-c1ccccc1)CCC3` the figure was 18%.
With `COc1ccc(C2CC(=O)C=C(O)C2)cc1` (stereo not drawn), the “hERG current change (%, negative = inhibition) at 1uM” value is given as -3.04%.
With `Cc1onc(-c2c(F)cccc2Cl)c1C(=O)N1CCOC12CCCCC2` the figure was -4.95%.
With `CN(Cc1ccccc1)C(=O)Cn1c(=O)oc2cc(S(=O)(=O)N3CCCC3)ccc21` the figure was 15.2%; with `CC(c1n[nH]c(=S)n1-c1ccc(Cl)cc1)N(C)C` (stereo not drawn), 6.29%; with `c1ccc(-n2c3ccccc3c3ccccc32)cc1`, 20.5%.
The same measure for `O=c1c2ccccc2nc(Cc2ccccc2)n1-c1cccc(O)c1`: 2.73%.
On to `Cc1ccn(-c2n[nH]c(C)c2[N+](=O)[O-])n1`, for which the “hERG current change (%, negative = inhibition) at 1uM” value came to 16.5%.
With `O=C(c1ccc(Cl)cc1)c1c[nH]c(C(=O)NNc2ccccc2)c1` the figure was 13.4%; with `Cc1[nH]c2ccc(OC(F)(F)F)cc2c1CCNCc1cccc([N+](=O)[O-])c1`, 1.7%; with `O=C1CN(C(=O)/C=C/c2ccco2)c2ccccc2N1`, -9.24%.
With `O=c1[nH]c(C2CCCN(S(=O)(=O)c3ccccc3)C2)nc2c1nnn2Cc1ccccc1F` (stereo not drawn) the figure was 7.47%.
With `CCCC(=O)NC(c1ccccc1Cl)c1c(O)ccc2ccccc12` (stereo not drawn) the figure was 12.3%.
Consider `CCN1CCN(c2ncnc3scc(-c4ccc(OC)cc4)c23)CC1`, for which the “hERG current change (%, negative = inhibition) at 1uM” value is given as -18.4%.
Take `CCOc1ccc(N2CC(C(=O)Nc3nnc(CC)s3)CC2=O)cc1` (stereo not drawn): the “hERG current change (%, negative = inhibition) at 1uM” value is recorded as -27.1%.
With `CC(C)N(C(=O)C1CC(=O)OC12CCCCC2)C(C)C` (stereo not drawn) the figure was -6.26%.
The same measure for `Cc1ccsc1/C=N/NC(=O)CNC(=O)c1c(F)cccc1Cl`: 17.7%; for `COc1ccc(C2=NNC(c3cccs3)=Nc3ccc(OC)cc32)cc1`: 15.4%; for `CCCN(CCC)S(=O)(=O)c1ccc(NS(=O)(=O)c2ccc(F)cc2)cc1`: 7.38%.
The same measure for `CN(C)Cc1c(C(=O)N/N=C/c2ccco2)nnn1-c1nonc1N`: 0.524%; for `O=S(=O)(Nc1ccc(F)cc1)c1cccc2nsnc12`: 9.02%.
For the compound `CN(C)c1ccc(-c2nnc(-c3cccnc3)o2)cc1`, the “hERG current change (%, negative = inhibition) at 1uM” value was 10.5%.
With `COc1ccc(CN(Cc2ccco2)S(=O)(=O)c2ccc(S(=O)(=O)N3CCCC3)cc2)cc1` the figure was -4.56%.
In the case of `Cc1cc(NS(=O)(=O)c2ccc(NC(=O)COc3c(C)cc(Br)cc3C)cc2)no1`, the “hERG current change (%, negative = inhibition) at 1uM” value was 13.5%.
Consider `COCCN(C(=O)C1CC(=O)N(Cc2ccccc2)C1)c1nc(-c2ccc([N+](=O)[O-])cc2)cs1` (stereo not drawn), for which the “hERG current change (%, negative = inhibition) at 1uM” value is reported as 11.1%.
With `Cc1cc(Nc2cccc(Cl)c2C)n2ncnc2n1` the figure was 2.24%; with `O=C(c1ccoc1)N1CCCC(N2CCN(c3cccc(C(F)(F)F)c3)CC2)C1` (stereo not drawn), -10.9%.
The same measure for `CN(C)C(CNC(=O)c1ccc(-c2ccccc2)cc1)c1ccccc1` (stereo not drawn): 8.72%; for `CCOc1ccccc1Oc1cn[nH]c1-c1ccc(OCC(=O)NN)cc1O`: 3.99%.
The same measure for `CC(=O)OCc1cc(-c2nn(C)c(=O)c3ccccc23)ccc1C`: 7.01%; for `Cc1ccc(CNC(=O)c2cc(COc3c(F)cccc3F)on2)s1`: 9.34%.
Take `O=c1cc(Cl)c2ccccc2n1-c1ccccc1`: the “hERG current change (%, negative = inhibition) at 1uM” value was found to be 14.7%.
With `O=[N+]([O-])c1ccc(Cl)c(CN2CCC(O)CC2)c1`, the “hERG current change (%, negative = inhibition) at 1uM” value is on record as 4.66%.
With `COc1ccc(OC)c(C(C)NC=O)c1` (stereo not drawn) the figure was 19.3%; with `COc1cccc(/C=C/c2ccc3cccc(O)c3n2)c1`, 13.2%.
The same measure for `CN(C)/C=C/C(=O)c1cccc([N+](=O)[O-])c1`: 7.06%; for `N#C/C(=C\C=C\c1ccccc1)C(=O)Nc1ccccc1`: 2.27%; for `CC1=CC(C)(C)Nc2cc(C)c(C)cc21`: 1.25%.
With `COCCOC(=O)C1=C(C)N=c2s/c(=C\c3cccs3)c(=O)n2C1c1cccs1` (stereo not drawn) the figure was 11.4%.
With `CN1CCc2nc(SCC(=O)OC(C)(C)C)c(C#N)cc2C1`, the “hERG current change (%, negative = inhibition) at 1uM” value is listed as -5.58%.
The same measure for `CCC(=O)NC1(C(F)(F)F)C(=O)Nc2c1c(=O)[nH]c(=O)n2Cc1ccco1` (stereo not drawn): 11%; for `Cc1nn(C)cc1CNCc1c(C(=O)N2CCCCC2)nc2c(C)cccn12`: 8.25%.
